Assay results as given in PubChem BioAssay AID2101 (National Center for Advancing Translational Sciences (NCATS), 2009).
Values joined by “and” are separate entries in the source; they are usually repeats but may differ in a detail not shown here. Equal values may be shown once. Hit rate of the full screen: of about 330,000 compounds, about 300 (0.091%) were called active. Another 4% or so got no clear call; they are omitted. The call rests on the fitted dose curve; in most records, active means well fitted inhibition curve with a large enough effect; inconclusive means small, poorly fitted or top-dose-only effect, or effect the other way, or another doubt; inactive means no such curve, though single readings can be large or run the other way. This is a selection; strong and weak results do not stand in their true shares. Some structures have more than one record in an assay (separate samples or runs), and their calls can disagree.

What follows are compounds tested against Lysosomal acid glucosylceramidase (Homo sapiens) (UniProt P04062) (assay: qHTS Assay for Inhibitors and Activators of N370S glucocerebrosidase as a Potential Chaperone Treatment of Gaucher Disease). Conditions: N370S GC spleen homogenate, 4MU-glucoside fluorescence; series mostly up to 59.4 µM; activity change, negative = inhibition: at the top concentration.
Potency means the concentration at half of the fitted maximal effect.
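Wherever activity change, negative = inhibition is given: 0% = full enzyme activity and -100% = no enzyme basal.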

SMILES | activity change, negative = inhibition | Potency
Cc1cc(NC(=O)Nc2cccc3ccccc23)no1 | inactive: 21.4% | –
C=C(C)C1CC=C(CN2CCN(Cc3ccccc3)CC2)CC1 (stereo not drawn) | inactive: -3.21% | –
NCCS(=O)(=O)O | – | inactive
O=C(Nc1cccc(C(F)(F)F)c1)/C(=C/c1ccco1)NC(=O)c1cccs1 | inactive: 12.2% | –
O=c1c(O)c(-c2cc(O)c(O)c(O)c2)oc2cc(O)cc(O)c12 | – | inactive
CC12CCC(C(=O)Nc3ccccc3Cl)(C(Br)C1=O)C2(C)C (stereo not drawn) | inactive: -9.83% | –
Oc1ccccc1Nc1nc(NCc2ccccc2)c2ccccc2n1 | – | active: 11.2 µM
O=C(NC1CC1)C1=C[C@@H](c2ccc(Br)cc2)C[C@@H](OCc2ccc(CO)cc2)O1 | inactive: 11.2% | –
Cc1cc(C)cc(N(CC(=O)Nc2ccc(C(F)(F)F)cc2)S(=O)(=O)c2c(C)[nH]c(=O)[nH]c2=O)c1 | – | active: 2.24 µM
CCNc1ccc(S(=O)(=O)N(C)C)cc1NCC(=O)Nc1ccccc1F | – | active: 10 µM
O=C(O)c1ccc2c(c1)C(=O)N([C@@H](Cc1ccc(O)cc1)C(=O)O)C2=O | inactive: 9.37% | –
OCCN1CCN(CCCN2c3ccccc3Sc3ccc(Cl)cc32)CC1 | inactive: -7.43% [at 21.6 µM] | –
COc1cccc(-c2nc(N3CCN(Cc4ccccc4)CC3)c3ccccc3n2)c1O | inactive: -3.95% | –
CCN(CC)CCOc1ccc(/C(=C(\Cl)c2ccccc2)c2ccccc2)cc1 | – | inactive
C[C@@H](C(=O)N[C@@H](CO)Cc1ccccc1)[C@@H]1C[C@@]1(C)[C@@H](NC(=O)OCc1ccccc1)c1ccccc1 | inactive: -21.1% | –
O=C1O/C(=C\c2ccccc2)c2ccccc21 | inactive: -1.26% | –
FC(F)(F)c1ccc(CN2C[C@@H]3C(c4ccc(Cl)nc4)C4(c5cccnc5)CC3(C4)[C@H]2c2ccccc2)cc1 (stereo partly drawn) | inactive: -14.7% | –
COc1cc2nc(N3CCN(C(=O)C4CCCO4)CC3)nc(N)c2cc1OC (stereo not drawn) | inactive: 13.9% | –
CCOc1ccc(N(CC(=O)NC2CCCC2)S(=O)(=O)c2c(C)[nH]c(=O)[nH]c2=O)cc1 | – | active: 7.94 µM
CCN(CC)c1ccc(/C=C2/C(=O)c3ccc(C(=O)O)cc3C2=O)cc1 | inactive: 0.0393% | –
CCOC(=O)CC(=O)CSc1nc2ccc(C)cc2cc1C#N | – | active: 22.4 µM
C[C@]1(C(=O)NCCN2CCOCC2)C=C[C@@H](Cc2ccccc2)N1C(=O)c1ccccc1 | inactive: 25.7% | –
CC1=C(/C=C/C(C)=C/C=C/C(C)=C/C(=O)Nc2ccc(O)cc2)C(C)(C)CCC1 | – | inactive
CC[n+]1c(/C=C2\C=C(C)CC(C)C2)sc2ccccc21 (stereo not drawn) | inactive: -0.754% | –
Brc1ccc(C2C3=C(Nc4ncnn42)c2ccccc2OC3c2ccncc2)cc1 (stereo not drawn) | – | active: 14.1 µM
CCCCCCCCCCCCCCC[C@@H](O)[C@@H](N)CO | – | inactive
Cc1ccc(C)c(N2CCN(S(=O)(=O)c3ccc4[nH]c(=O)c(=O)[nH]c4c3)CC2)c1 | – | active: 12.6 µM

SMILES | activity change, negative = inhibition | Potency
Cc1cccc(C2=NN(c3ccc(Br)cc3)[C@@H](C(=O)N3CCOC3=O)[C@@H]2c2ccc(F)cc2)c1 | inactive: 11% | –
CCCCCCCCCCCCC/C=C\[C@@H](O)[C@@H](N)CO | inactive: -15.2% | –
CCO[C@@H]1OC(C(=O)Nc2ccccc2)=C[C@H](c2ccc(C(F)(F)F)cc2)[C@H]1CCCO | inactive: -6.98% | –
O[C@H](c1cc(C(F)(F)F)nc2c(C(F)(F)F)cccc12)[C@H]1CCCCN1 | inactive: -0.556% [at 21.6 µM] | –
Cc1ccc(S(=O)(=O)Nc2cccc3cccnc23)cc1 | inactive: 3.64% | –
Cc1ccc(C(=O)Nc2ccc(S(=O)(=O)O)c3cc(S(=O)(=O)O)cc(S(=O)(=O)O)c23)cc1NC(=O)c1cccc(NC(=O)Nc2cccc(C(=O)Nc3cc(C(=O)Nc4ccc(S(=O)(=O)O)c5cc(S(=O)(=O)O)cc(S(=O)(=O)O)c45)ccc3C)c2)c1 | – | inactive
O=C1CCN(CCc2ccccc2)CCN1C(CSc1ccc(Br)cc1)Cc1ccccc1 (stereo not drawn) | inactive: -5.74% | –
CCN(Cc1ccccc1)S(=O)(=O)c1ccc(C(=O)N(CCCN(C)C)c2nc3cc(C)cc(C)c3s2)cc1 | – | active: 14.1 µM
COc1cccc(-c2nc(NCc3ccccc3OC)c3ccccc3n2)c1 | – | active: 14.1 µM
CCOC(=O)[C@@H]1[C@H]2COc3ccc(Br)cc3[C@@H]2N2C(=O)N(c3cccc(F)c3)C(=O)[C@@]12C | inactive: 4.26% | –
O=c1c(-c2ccc(O)cc2)coc2cc(O)cc(O)c12 | – | inactive and active: 15.8 µM
COc1ccc(C(CCN2CCCC2)c2c(OC)cc(OC)c3c(-c4ccccc4)cc(=O)oc23)cc1 (stereo not drawn) | inactive: -24.1% | –
CCOc1ccc(NC(=O)CNC(=O)c2cn(-c3ccccc3OC)c(=O)c3ccccc23)cc1 | – | active: 12.6 µM
CCCCCCCCCCCCCCCC[N+](C)(C)CCN(Cc1ccc(OC)cc1)c1ncccn1 | inactive: 0.347% [at 21.6 µM] | –
CN1CCN(S(=O)(=O)c2cccc(C(=O)Nc3sc4c(c3-c3nc5ccccc5[nH]3)CCCC4)c2)CC1 | – | active: 11.2 µM
CC(C)COC[C@H](CN(Cc1ccccc1)c1ccccc1)N1CCCC1 | inactive: 2.26% [at 21.6 µM] | –
CN(C)CCCN1c2ccccc2CCc2ccc(Cl)cc21 | – | inactive
Cc1cc(C(C)(C)CC(C)(C)C)ccc1OCCOCC[N+](C)(C)Cc1ccccc1 | – | inactive
CCCCC[C@H](O)/C=C/[C@@H]1[C@@H](C/C=C\CCCC(=O)O)[C@H]2CO[C@@H]1C2 | – | inactive
COc1cc(C(CCN2CCCC2)c2c(OC)cc(OC)c3c(-c4ccccc4)cc(=O)oc23)cc(OC)c1OC (stereo not drawn) | inactive: -25.1% | –
Clc1ccc2c(c1)N=C(N1CCNCC1)c1ccccc1N2 | inactive: -25.1% | –
C#CCNC(=O)C1=C[C@@H](c2cn(C(C)=O)c3ccccc23)C[C@@H](OCc2ccc(CO)cc2)O1 | inactive: 5.4% | –
CO[C@H]1/C=C/O[C@@]2(C)Oc3c(C)c(O)c4c(O)c(c(/C=N/N5CCN(C)CC5)c(O)c4c3C2=O)NC(=O)/C(C)=C\C=C\[C@H](C)[C@H](O)[C@@H](C)[C@@H](O)[C@@H](C)[C@H](OC(C)=O)[C@@H]1C | – | inactive
O=C1NC(=O)C(c2ccccc2[N+](=O)[O-])=C1Nc1ccc(O)c(Cl)c1 | – | inactive
COC/C=C/C1=CC2=CC(=O)C(C)(OC(=O)c3cnc4ccccc4n3)C(=O)C2=CN1C(CO)CO (stereo not drawn) | inactive: 5.01% [at 12.8 µM] | –
Cc1ccc2sc(N(CCCN(C)C)C(=O)c3ccc(S(=O)(=O)N(C)C4CCCCC4)cc3)nc2c1C | – | active: 20 µM
